These are yes or no findings as the source states them, for the method shown. Binding seen in cells or lysates may run through a third protein. Some binding calls cover weakened binding; strength is not graded here. Where a sequence is shown, tags or fusion partners need not be part of it.
What was measured:
Test in all cases: split reporter; protein complementation assay with Gaussia princeps luciferase fragments: Gluc1-LEDGF construct or PWWP domain and Gluc2-PIR co-expressed in 293T cells, luminescence of the lysate 24 h after transfection; normalized luminescence ratio (NLR), threshold 3.5
[1] = target: MSH6 PWWP domain (aa 86-198), PCA fusion (human) (UniProt P52701)
[2] = target: Gluc1-LEDGF PWWP domain (1-100), WT (UniProt O75475)
[3] = target: Gluc1-LEDGF 1-325 (UniProt O75475)
[4] = target: Gluc1-LEDGF PWWP domain (1-100) A51P (UniProt O75475)
[5] = target: Gluc1-LEDGF PWWP domain (1-100) W21A (UniProt O75475)
[6] = target: Gluc1-LEDGF 1-176 (UniProt O75475)
[7] = target: Gluc1-LEDGF PWWP domain (1-100) K14AK16A (UniProt O75475)
[8] = target: HRP2 PWWP domain (aa 1-99), PCA fusion (human) (UniProt Q7Z4V5)
[9] = target: T1, NSD2 PWWP domain (aa 211-314), PCA fusion (human) (UniProt O96028)
T1 sequence: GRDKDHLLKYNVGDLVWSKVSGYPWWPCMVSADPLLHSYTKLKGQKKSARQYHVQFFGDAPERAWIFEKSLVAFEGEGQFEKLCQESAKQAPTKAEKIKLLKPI

Sequences of proteins named here, by UniProt entry; tags and fusion partners are left off. A change or cut given only in a name is not applied to a line headed by its entry. A line that says so, or that is headed by a name, gives the form on record, which may keep a tag or linker. Residues count along the entry.
UniProt P52701, residues 86-198: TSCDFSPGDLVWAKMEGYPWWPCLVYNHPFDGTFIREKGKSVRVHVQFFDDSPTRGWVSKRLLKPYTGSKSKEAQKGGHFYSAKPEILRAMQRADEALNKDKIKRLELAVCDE
UniProt O75475: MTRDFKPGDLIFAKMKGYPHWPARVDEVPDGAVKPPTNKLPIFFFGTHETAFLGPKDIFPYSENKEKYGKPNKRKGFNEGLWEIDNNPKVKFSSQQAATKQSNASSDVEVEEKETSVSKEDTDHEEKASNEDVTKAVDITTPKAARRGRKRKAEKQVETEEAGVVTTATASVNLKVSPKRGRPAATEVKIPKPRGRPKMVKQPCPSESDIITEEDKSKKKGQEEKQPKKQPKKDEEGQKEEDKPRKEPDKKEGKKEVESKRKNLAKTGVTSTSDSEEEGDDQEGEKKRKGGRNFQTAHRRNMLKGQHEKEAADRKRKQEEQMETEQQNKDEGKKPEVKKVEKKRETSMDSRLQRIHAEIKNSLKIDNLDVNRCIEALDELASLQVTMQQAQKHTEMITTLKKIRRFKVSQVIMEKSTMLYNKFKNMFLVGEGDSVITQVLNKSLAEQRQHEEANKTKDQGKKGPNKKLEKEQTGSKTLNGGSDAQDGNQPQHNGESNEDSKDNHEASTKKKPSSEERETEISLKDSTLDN
Gluc1-LEDGF 1-325: residues 1-325 of O75475
Gluc1-LEDGF 1-176: residues 1-176 of O75475
Gluc1-LEDGF PWWP domain (1-100), WT: residues 1-100 of O75475
Gluc1-LEDGF PWWP domain (1-100) A51P (O75475, form named): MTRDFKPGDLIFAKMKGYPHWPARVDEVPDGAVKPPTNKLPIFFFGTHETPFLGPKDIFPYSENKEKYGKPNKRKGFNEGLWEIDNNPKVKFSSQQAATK
Gluc1-LEDGF PWWP domain (1-100) W21A (O75475, form named): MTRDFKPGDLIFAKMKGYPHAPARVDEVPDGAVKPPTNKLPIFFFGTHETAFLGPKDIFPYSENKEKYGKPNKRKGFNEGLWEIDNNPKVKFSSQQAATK
Gluc1-LEDGF PWWP domain (1-100) K14AK16A (O75475, form named): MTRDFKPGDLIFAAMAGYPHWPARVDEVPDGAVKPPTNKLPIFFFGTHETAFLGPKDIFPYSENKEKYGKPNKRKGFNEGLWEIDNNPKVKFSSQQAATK
Gluc1-LEDGF PWWP domain (1-100) I42AF43A (O75475, form named): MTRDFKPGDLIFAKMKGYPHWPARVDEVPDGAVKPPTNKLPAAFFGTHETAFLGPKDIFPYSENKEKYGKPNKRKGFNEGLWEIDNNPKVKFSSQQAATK
UniProt Q7Z4V5, residues 1-99: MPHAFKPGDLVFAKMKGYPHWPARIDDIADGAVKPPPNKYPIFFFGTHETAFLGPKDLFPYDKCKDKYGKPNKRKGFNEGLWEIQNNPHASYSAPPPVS

[10] = target: Gluc1-LEDGF PWWP domain (1-100) I42AF43A (UniProt O75475)
[11] = target: Gluc1-LEDGF/p75 full length (UniProt O75475)

B1: Gluc2-TOX4 PIR (domain or fragment, UniProt O94842 203-621)
chain: VEAGKKQKAPKKRKKKDPNEPQKPVSAYALFFRDTQAAIKGQNPNATFGEVSKIVASMWDSLGEEQKQVYKRKTEAAKKEYLKALAAYKDNQECQATVETVELDPAPPSQTPSPPPMATVDPASPAPASIEPPALSPSIVVNSTLSSYVANQASSGAGGQPNITKLIITKQMLPSSITMSQGGMVTVIPATVVTSRGLQLGQTSTATIQPSQQAQIVTRSVLQAAAAAAAAASMQLPPPRLQPPPLQQMPQPPTQQQVTILQQPPPLQAMQQPPPQKVRINLQQQPPPLQIKSVPLPTLKMQTTLVPPTVESSPERPMNNSPEAHTVEAPSPETICEMITDVVPEVESPSQMDVELVSGSPVALSPQPRCVRSGCENPPIVSKDWDNEYCSNECVVKHCRDVFLAWVASRNSNTVVFVK
binding [1]: no binding | binding [2]: binds | binding [3]: binds | binding [4]: no binding (tested: NLR threshold 3.5) | binding [5]: no binding (tested: NLR threshold 3.5) | binding [6]: binds | binding [7]: no binding (tested: NLR threshold 3.5) | binding [8]: binds | binding [9]: no binding | binding [10]: no binding (tested: NLR threshold 3.5) | binding [11]: binds
